Test results published in PubChem BioAssay AID1454 (National Center for Advancing Translational Sciences (NCATS), 2008).
The campaign covered roughly 130,000 compounds. About 550 (0.42%) were called active. This list was built around the results that the source calls inconclusive (neither active nor inactive); the mix of calls is not that of the screen. Calls come from the whole dose curve; as a rule, active = well fitted inhibition curve with a large enough effect; inconclusive = small, poorly fitted or top-dose-only effect, or effect the other way; inactive = flat fitted curve, though single readings scatter. No potency is given beside an inconclusive call; the fits are too rough.

test: qHTS Assay for Inhibitors of the ERK Signaling Pathway using a Homogeneous Screening Assay; Stimulation with EGF; conditions: HEK293-V1b, EGF-stimulated phospho-ERK AlphaScreen; activity change, negative = inhibition: at the top concentration; note: nearly all actives have a fitted effect of over 55% in size;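 for activity change, negative = inhibition: plate controls were stimulated vehicle wells for no effect and unstimulated vehicle basal for full effect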
In short: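 Homogeneous cell-based phospho-ERK assay: HEK293/V1b cells in 1% FBS, compound 30 min then EGF 5 min, AlphaScreen luminescence. Activity normalized between DMSO and 25 nM EGF controls; AC50 from Hill modelling.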
Potency is the fitted concentration of half-maximal effect; tags give direction and shape of the fitted curve.

Row | SMILES | Potency | activity change, negative = inhibition
1 | c1cc2c(cc1-c1csc(NNC3=NCCCCC3)n1)OCCO2 | inconclusive [inhibitor, partial curve] | 
2 | O=C(NC1CCCC1)C1CCCN1C(=O)Oc1ccccc1 (stereo not drawn) | inconclusive [inhibitor, single point] | 
3 | Fc1ccc2[nH]c3c(N4CCc5ccccc5C4)ncnc3c2c1 | inconclusive [inhibitor, single point] | 
4 | COc1cc(/C=C2\SC(=S)N(CC(=O)Nc3cccnc3)C2=O)cc(OC)c1OC | inconclusive [inhibitor, single point] | 
5 | CC(=O)N[C@H](C(=O)O)C(C)(C)SN=O |  | inactive: 2.26%
6 | Fc1cc(NC(=S)NCc2ccc(CNC(=S)Nc3ccc(Cl)c(F)c3)cc2)ccc1Cl | inconclusive [inhibitor, single point] | 
7 | Cc1ccc(-c2nc(N)sc2-c2ccccc2)cc1C | inconclusive [inhibitor, single point] | 
8 | COc1ccc2c(c1)C=C([C@@H]1C[C@H]3CN(c4ccccc4)C(=O)[C@]34CCCN14)CO2 | inconclusive [inhibitor, single point] | 
9 | CCOC(=O)c1c(-c2ccc(F)cc2)csc1NC(=O)C1CC=CCC1C(=O)O (stereo not drawn) |  | inactive: -6.81%
10 | O=C(CSCc1ccccc1)NCCCN1CCOCC1 | inconclusive [inhibitor, single point] | 
11 | CCc1c(C)nc2ccc(Br)cc2c1SCCC#N |  | inactive: -0.0229%
12 | Cc1c(C(=O)OC/C(O)=C(\C#N)c2nc3ccccc3[nH]2)oc2ccccc12 | inconclusive [inhibitor, partial curve] | 
13 | Cc1ccc(-c2nn(-c3ccccc3)cc2C(=O)N2CCOCC2)cc1C | inconclusive [inhibitor, partial curve] | 
14 | c1cncc(CNc2ncnc3sc4c(c23)CCC4)c1 |  | inactive: -13.7% [at 57.5 µM]
15 | C[C@@]12CC(=O)C3=C(CCCC3=O)N1CCc1ccccc12 |  | inactive: -6.14%
16 | CCN(CC)[C@@H](C)CN1c2ccccc2Sc2ccccc21 |  | inactive: 5.15% [at 25.7 µM]
17 | COC(=O)C(Cc1ccccc1)N1CCS(=O)(=O)CC1 (stereo not drawn) |  | inactive: 11.8%
18 | Cc1nc(-c2cc(-c3nc(-c4ccc(C(F)(F)F)cc4)no3)no2)cs1 | inconclusive [activator, full curve, poor fit] | 
19 | COc1ccc(OCC(O)CN2C(=O)NC(C)(C)C2=O)cc1 (stereo not drawn) | inconclusive [inhibitor, single point] | 
20 | COC(=O)N1CCC2(CCN(C(=O)NC(C)C)CC2)CC1 |  | inactive: -0.869%
21 | CCOC(=O)C1=C(C)Nc2nc(C)nn2C1c1ccc(OC)c(OC)c1 (stereo not drawn) | inconclusive [inhibitor, partial curve] | 
22 | NC(=S)N/N=C/c1ccc(-c2ccc(SC(F)F)cc2)o1 | inconclusive [inhibitor, single point] | 
23 | O=S(=O)(Nc1ccc(-c2cn3ccccc3n2)cc1)c1ccccc1 | inconclusive [inhibitor, single point] | 

Row | SMILES | Potency | activity change, negative = inhibition
24 | O=C(COC(=O)Cn1cnc2ccccc21)Nc1cc2c(cc1Cl)C(=O)c1ccccc1C2=O | inconclusive [inhibitor, partial curve, poor fit] | 
25 | Cc1cc(Oc2ccc(Cl)cc2)nc(-c2ccccn2)n1 | inconclusive [inhibitor, single point] | 
26 | COc1ccc(CN2CCNC(=O)C2CC(=O)N2CCCO2)c(OC)c1 (stereo not drawn) |  | inactive: -6.28%
27 | Oc1cc2c(cc1O)C1c3ccc(O)c(O)c3OCC1(O)C2 (stereo not drawn) | active: 11.2 µM | 
28 | O=C1CCCN1CN(C(=O)c1ccccc1)c1ccccc1 |  | inactive: -3.93%
29 | Cc1nn2c3ccccc3n(CC(=O)c3cccs3)c2nc1=O |  | inactive: 7.49%
30 | CS(=O)(=O)Nc1c(O)ccc2c1CCC[C@H]2C1=NCCN1 |  | inactive: 1.33%
31 | Cc1c(Br)c(=O)oc2c(Br)c(O)c(O)cc12 | inconclusive [inhibitor, single point] | 
32 | Cn1c(/C=C(\C#N)C(N)=S)ccc1-c1ccc(Br)cc1 | inconclusive [inhibitor, partial curve, poor fit] | 
33 | CC1CCN(C(=O)CCc2ccc(Oc3cc([N+](=O)[O-])cc([N+](=O)[O-])c3)cc2)CC1 | inconclusive [inhibitor, single point] | 
34 | COc1cc(OC)cc(-c2nc3nc(C)c(CCC(=O)NCC(OC)OC)c(C)n3n2)c1 | inconclusive [inhibitor, single point] | 
35 | O=C(c1ccc(F)cc1)C1CCN(CCn2c(=O)[nH]c3ccccc3c2=O)CC1 | inactive | 
36 | O=C(COc1ccccc1[N+](=O)[O-])Nc1ccc(Br)cc1 | inconclusive [inhibitor, single point] | 
37 | Cn1c(-c2c(N)n(-c3ccccc3)c3nc4ccccc4nc23)nc2ccccc21 | inconclusive [activator, partial curve] | 
38 | O=C(N=Nc1c(O)[nH]c2ccccc12)c1cccc(S(=O)(=O)Nc2ccccc2Cl)c1 | inconclusive [inhibitor, partial curve] | 
39 | CN1CCN(Cc2cn[nH]c2-c2ccc(F)cc2F)[C@@H](c2ccccc2)C1 | inconclusive [activator, full curve] | 
40 | NCC1O[C@@H](OC2C(N)C[C@H](N)[C@@H](O[C@H]3OC(CO)C(O)C(N)C3O)C2O)C(O)C(O)C1O (stereo partly drawn) |  | inactive: 22.6%
41 | c1ccc(CN2CCC(Nc3nc(-c4cccs4)nc4ccccc34)CC2)cc1 | inconclusive [inhibitor, single point] | 
42 | Cc1ccc(F)c(C2C3C=CCC(c4cccc(-c5ccc(N(C)C)cc5)c4)C3C(=O)N2Cc2ccccc2)c1 (stereo not drawn) | inconclusive [inhibitor, single point] | 
43 | COc1ccc(/C(C)=N/NC(=S)NCc2ccco2)cc1 | inconclusive [inhibitor, single point] | 
44 | COc1ccccc1NC(=O)Cn1c(C)cc(=O)c2cccc(OC)c21 | inconclusive [inhibitor, single point] | 
45 | CC(=O)c1cccc(N=Nc2c(-c3ccccc3)[nH]n(-c3ccccc3)c2=O)c1 | inconclusive [inhibitor, partial curve] | 
46 | CCN(CC)c1ccc(N=Nc2nn(C)c(C)c2[N+](=O)[O-])cc1 | active: 15.8 µM | 

Row | SMILES | Potency | activity change, negative = inhibition
47 | OC(c1cc(-c2ccc(Cl)cc2)nc2ccccc12)C1CCCCN1 (stereo not drawn) | active: 31.6 µM | 
48 | CCOCCOc1nc2c(c(=O)n(C)c(=O)n2C)n1Cc1ccc(C)cc1 | inconclusive [inhibitor, single point] | 
49 | O=C(CCc1ccc(S(=O)(=O)N2CCOCC2)cc1)N1CCc2ccccc2C1 | inconclusive [inhibitor, full curve] | 
50 | O=C(NC(=S)Nc1ccccc1)c1cc([N+](=O)[O-])ccc1N1CCOCC1 | inconclusive [inhibitor, partial curve, poor fit] | 
51 | COc1ccc(-c2cc(-c3cccs3)nc3sc(C#N)c(N)c23)cc1 | inconclusive [activator, partial curve] | 
52 | COCCCNC(=O)Cn1cnc2sc(C)c(S(=O)(=O)N3CCN(c4ncccn4)CC3)c2c1=O | inconclusive [inhibitor, full curve, poor fit] | 
53 | N#Cc1c(Cl)nc2c(c1C#N)CCCC2 | inconclusive [inhibitor, partial curve, poor fit] | 
54 | COc1cc(/C=C2\SC(=S)N(C(Cc3ccccc3)C(=O)O)C2=O)ccc1O (stereo not drawn) | inconclusive [inhibitor, partial curve] | 
55 | O=C(C1CCCCC1)N1CCN(c2ccnc3cc(Cl)ccc23)CC1 | inconclusive [inhibitor, single point] | 
56 | COc1ccc(/C=C/C(=O)Nc2cccc(F)c2)cc1S(=O)(=O)N1CCOCC1 | inconclusive [inhibitor, single point] | 
57 | COCCN(C(=O)CC1C(=O)NCCN1CC(c1ccccc1)c1ccccc1)C(C)C (stereo not drawn) | inconclusive [inhibitor, single point] | 
58 | COc1cc(/C=C\c2ccc(OC)cc2OC)cc(OC)c1 |  | inactive: -28.6%
59 | CCN(CCN(C)C)C(=O)c1ccc2c(c1NCCO)C(=O)c1ccccc1C2=O | inconclusive [inhibitor, single point] | 
60 | Cc1ccccc1Nc1cccc2nonc12 | inconclusive [activator, partial curve] | 
61 | S=c1[nH]nc(-c2cc(-c3ccccc3)n[nH]2)n1/N=C/c1ccc(Br)s1 | inconclusive [inhibitor, single point] | 
62 | c1ccc(COc2ccc(CNCc3cccnc3)cc2)cc1 | inconclusive [inhibitor, single point] | 
63 | COC(Cn1c2c(c3cc(C)ccc31)CCCC2NCc1ccccc1)OC (stereo not drawn) | inconclusive [inhibitor, single point] | 
64 | O=[N+]([O-])c1ccccc1N/N=C1\CC2CC=CC12 (stereo not drawn) | active: 12.6 µM | 
65 | CN(C)c1ccc(/C=C/C(=O)c2ccccc2)cc1[N+](=O)[O-] | inconclusive [inhibitor, single point] | 
66 | CCC(C)(C)C1CCC(=NNC(=S)Nc2cccnc2)CC1 (stereo not drawn) | inconclusive [inhibitor, single point] | 
67 | CN(C)c1ccc(C2C3CCCc4ccccc4C3=NN2C)cc1 (stereo not drawn) | inconclusive [inhibitor, partial curve] | 
68 | CCc1c(C(C)=O)oc2ccc3c(C)cc(=O)oc3c12 | inconclusive [activator, partial curve] | 
